Measurements reported in PubChem BioAssay AID1240 (Sanford-Burnham Center for Chemical Genomics, 2008).
Out of some 50,000 compounds screened, about 800 (1.6%) showed an effect of 50% or more. This is one part of the list.

Molecular target: Bcl-2-like protein 10 (Homo sapiens) (UniProt Q9HD36)
Experiment: TR3 peptide-Bcl-B binding displacers, biochemical primary FP assay, phenotype converters (AID 1240);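 note: 0% = Bcl-B with tracer peptide and DMSO and 100% = tracer peptide lacking Bcl-B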
Conditions: GST-Bcl-B / FITC-TR3 peptide fluorescence polarization; stronger effect = higher value; compound at 3.75 mg/L

UniProt Q9HD36, sequence (Q9HD36 whole entry, looked up): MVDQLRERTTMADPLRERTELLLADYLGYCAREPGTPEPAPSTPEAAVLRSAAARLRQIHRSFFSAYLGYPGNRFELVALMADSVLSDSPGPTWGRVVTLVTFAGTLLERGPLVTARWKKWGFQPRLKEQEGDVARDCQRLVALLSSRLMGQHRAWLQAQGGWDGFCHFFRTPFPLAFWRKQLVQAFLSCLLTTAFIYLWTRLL

Point of comparison: `C/C(=C\C(=O)c1ccc(C)cc1)Nc1ccc(Br)c(C)c1`, displacement 4.4%. Against it:
- COc1cccc(N(CC(=O)Nc2cc(C)cc(C)c2)S(=O)(=O)c2ccccc2)c1 — lower, -4.7%
- CCOC(=O)c1ccc(N2NC(=O)/C(=C/c3cccc(Br)c3)C2=O)cc1 — higher, 27.9%
- NC1=NC(=O)/C(=C\C=C\c2ccccc2)S1 — higher, 154%
- COC(=O)C1=C(C)NC2=C(C(=O)c3ccccc32)C1c1ccc(F)cc1 (stereo unspecified) — higher, 10.2%
- Cc1cccc(C(=O)N2c3ccc([N+](=O)[O-])cc3-c3c(ssc3=S)C2(C)C)c1 — higher, 10.8%
- O=C(Nc1ccccc1CO)c1cccc(F)c1 — higher, 13.8%
- C/C(=N\N=C1\NC(=O)C(CC(=O)Nc2ccccc2Br)S1)c1ccc(Cl)cc1 (stereo unspecified) — lower, -1.5%
- COc1cc(C(=O)NC2CCCCC2)cc(OC)c1OC — higher, 7.9%
- CCOC(=O)C1C(=O)C=C(/C=C/c2cccs2)CC1c1ccccc1 (stereo unspecified) — lower, -17.1%
- CC(C)c1ccccc1NS(=O)(=O)c1cccc([N+](=O)[O-])c1 — higher, 5.2%
- CN1C2=C(C(=O)CC(C)(C)C2)C(c2cccs2)C2=C1CC(C)(C)CC2=O — lower, -6.5%
- CC1=NN(c2ccc(Cl)c(Cl)c2)C(=O)/C1=C/c1ccc2c(c1)OCO2 — higher, 6.4%
- COc1ccc(S(=O)(=O)N(CC(=O)NCc2ccc(C)cc2)Cc2ccccc2)cc1OC — lower, -11.1%
- O=C(NC(=S)Nc1ccc(Cl)c(-c2nc3ccccc3[nH]2)c1)c1ccccc1Cl — lower, -4.5%
- O=C(CCCN1C(=O)c2cccc3cccc(c23)C1=O)Nc1nc(-c2cccc([N+](=O)[O-])c2)cs1 — lower, -9.8%
- O=C(Nc1ncc(Cc2ccccc2)s1)c1ccccc1[N+](=O)[O-] — higher, 15.8%
- CCN(CC)CCNC(=O)Cn1nc(C)c2ccccc2c1=O — lower, 2.6%
- Cc1ccc(N=Cc2cccc(O)c2O)cc1I — lower, 3.3%
- COc1ccc(C2/C(=C(/O)c3ccccc3)C(=O)C(=O)N2c2cccc(C)c2)cc1 (stereo unspecified) — lower, 3.9%
- O=C1NC(=O)/C(=C\c2ccc(-c3cccc(Cl)c3)o2)S1 — higher, 9.8%
- Cc1ccc(N2C(=O)NC(=O)/C(=C\c3ccc(I)o3)C2=O)cc1 — higher, 6.4%
- O=C(COc1ccccc1Cl)N1CCN(c2ccccc2)CC1 — lower, -6.6%
- O=C(Nc1nc(-c2ccccc2)cs1)c1ccc(Cl)cc1Cl — lower, -11%
- O=C(Nc1ccc(-c2nc3ccccc3s2)cc1)c1ccc(Br)o1 — lower, -23.8%
- CC1(C)c2ssc(=S)c2-c2ccccc2N1C(=O)CSc1nnc(N)s1 — higher, 21.8%
- COc1ccc(Cl)cc1C(=O)NC(C)C — lower, -4.5%
- CC(C)(C)c1csc(N/N=C/c2ccc(Br)cc2)n1 — lower, -23.9%
- COC(=O)c1cc(NC(=O)CCCC(=O)O)cc(C(=O)OC)c1 — higher, 6.1%
- CN(C)c1ccc(/C=N/Nc2cc(N3CCOCC3)nc(N3CCOCC3)n2)cc1 — higher, 5.7%
- Oc1c(CN2CCCCC2)cc(CN2CCCCC2)nc1-c1ccccc1 — higher, 16.9%
- COc1ccc(/C=N/NC(=O)CNc2cccc3ccccc23)c(O)c1 — lower, -10.7%
- C/C(CC(=O)Nc1cccc(C)n1)=N\NC(=O)c1ccco1 — lower, -16.9%
- CC1=C(C(=O)OCCc2ccccc2)C(c2cccc([N+](=O)[O-])c2)NC(=O)N1C (stereo unspecified) — lower, -1.2%
- O=C(COc1ccc(Br)cc1)N1CCCCC1 — lower, -7.4%
- COc1ccc(/C=N/NC(=O)c2ccccn2)cc1Cl — lower, -4.7%
- CC(Oc1cccc(Cl)c1)C(=O)Nc1ccccc1Br (stereo unspecified) — lower, -3.7%
- CCCOC(=O)c1c(-c2ccc(Br)cc2)csc1N — lower, -4.3%
- CCc1ccccc1N1C(=O)C2C(c3ccccc3Cl)OC3(C(=O)c4ccccc4C3=O)C2C1=O (stereo unspecified) — lower, -5.1%
- COC(=O)c1c(NC(=O)c2cc3ccccc3o2)sc2c1CCC(C)C2 (stereo unspecified) — lower, -4.1%
- CCCCOP(=O)(CP(=O)(OCCCC)OCCCC)CP(=O)(OCCCC)OCCCC — higher, 14%
- COc1cc(/C=C2\C(=O)N(C)C(=O)N(c3ccccc3)C2=O)cc(OC)c1O — lower, -4.6%
- N#Cc1ccc(/C=N/N2C(=O)C3C(C2=O)C2C=CC3C23CC3)c([N+](=O)[O-])c1 (stereo unspecified) — higher, 7.9%
- O=[N+]([O-])c1cccc(Nc2ncnc3ccc(Br)cc23)c1 — lower, -2.5%
- COc1cc(NC(=O)COc2cccc(C)c2)cc(OC)c1 — lower, 2.1%
- COc1ccc2c3c([nH]c2c1)C(=O)CCC3 — higher, 9.8%
- Cn1c(NC(=O)c2ccc([N+](=O)[O-])cc2Cl)cc(=O)n(C)c1=O — higher, 12.2%
- Cc1ccc(C(=O)C[n+]2ccccc2C)cc1[N+](=O)[O-] — higher, 12.3%
- O=[N+]([O-])c1ccc(C2Nc3ccc(I)cc3C3C=CCC32)cc1 (stereo unspecified) — higher, 9.4%
- O=C(NC(=S)NNc1nc(-c2ccccc2)cs1)c1cc2ccccc2oc1=O — lower, 2.3%
- C=CCOc1ccccc1C=C1C(=O)NC(=S)NC1=O — higher, 15.2%
- COC(=O)C1(CC(=O)C(C)(C)C)NN=C(c2ccccc2)S1 (stereo unspecified) — higher, 10%
- CC1=C(C(=O)OCCc2ccccc2)C(c2ccc(Cl)cc2Cl)CC(=O)N1 (stereo unspecified) — lower, -6.4%
- Cc1ccc(NC(=O)c2c(NC(=O)C(F)(F)F)sc(-c3ccccc3)c2C)c(C)c1 — lower, -2.8%
- COc1ccc(Br)cc1/C=C/C(=O)Nc1ccc(Cl)cc1 — higher, 16.1%
- CCN(CC)S(=O)(=O)c1cc(C(=O)Nc2cccc(O)c2)ccc1Cl — lower, -2.1%
- COc1ccc(/C=C2\SC(=O)N(Cc3ccccc3)C2=O)cc1OC — lower, 2.8%
- CS(=O)(=O)N(Cc1ccc(C(=O)Nc2cccc(C(F)(F)F)c2)cc1)c1ccccc1 — higher, 5.2%
- O=C(O)c1ccccc1-c1ccccc1C(=O)Nc1ccc(Br)cn1 — lower, -15.4%
- O=C(Nc1ccc(Cl)c(Cl)c1)Nc1nnc(-c2ccc(Br)cc2)s1 — lower, 0.8%
- O=C(Nc1ccc2ccccc2c1)c1ccccc1F — lower, -8.5%
- C/C(=N\O)c1ccc2c(c1)c1cc(/C(C)=N/O)ccc1n2C(C)C — lower, 2.5%
- O=C1CN(c2ccc(Cl)cc2)C(=O)N1 — higher, 8%
- O=[N+]([O-])c1ccc(C2SCCN2S(=O)(=O)c2ccc3ccccc3c2)cc1 (stereo unspecified) — higher, 11.2%
- O=C(Nc1ccccc1)Nc1nnc(CSCc2ccc(F)cc2)s1 — lower, 4%
- CCOC(=O)c1ccc2c(c1)C1C=CCC1C(c1ccc(F)cc1)N2 (stereo unspecified) — higher, 8.4%
- CC(C)(C)C(=O)/C=C(/N)c1ccccn1 — higher, 14.1%
- CCOc1cc(OCC)cc(C(=O)Nc2ccc(Cl)cc2)c1 — higher, 11.9%
- O=C(c1ccc(Cl)cc1Cl)N1CCN(c2ccccc2)CC1 — lower, -13.3%
- COc1cc([N+](=O)[O-])ccc1-c1ccc(/C=C2/SC(=S)N(c3ccccc3)C2=O)o1 — higher, 8.8%
- O=C(Nc1ccc(F)c(F)c1)c1ccc2c(c1)OCO2 — lower, 4.2%
- Cc1ccc(N=Cc2ccccc2OCc2ccccc2)c(O)c1 — lower, -14.2%
- Cn1ccnc1SCC(=O)n1c2c(c3ccccc31)CCCC2 — lower, -9.5%
- O=C1N=c2ccccc2=C1c1sc(=S)n(Cc2ccco2)c1O — higher, 12.1%
- COC(=O)C1=C(C)NC(=O)CC1c1ccccc1Br (stereo unspecified) — lower, -0.4%
- CC(=O)COc1ccc2c3c(c(=O)oc2c1)CCC3 — lower, -0.7%
- CCOc1cc(CNc2ccccc2)ccc1OC — higher, 4.5%
- O=C1C(Nc2ccccc2)=CC(c2ccc3c(c2)OCO3)N1c1ccccc1 (stereo unspecified) — lower, 0.4%
- Cc1cc(=O)oc2cc(OCC(=O)c3ccc(F)cc3)ccc12 — higher, 10.9%
- COc1ccc(C)cc1NC(=O)c1ccc(Cl)c(Cl)c1 — lower, -1.1%
- COc1ccc(CNC(=O)c2cnn3c(C(F)(F)F)cc(-c4ccc(OC)cc4)nc23)cc1 — higher, 9.2%
- Cc1ccccc1OCC(=O)Nc1ccccc1C(C)C — lower, -7.2%
- COc1cccc(C(=O)N2CCN(Cc3ccco3)CC2)c1 — higher, 5.7%
- COc1cccc(-n2c(O)c(C=Nc3cc(OC)c(OC)c(OC)c3)c(=O)[nH]c2=O)c1 — lower, 3.7%
- CCN(CC)S(=O)(=O)c1ccc(C(C)(C)C)cc1 — higher, 5.3%
- COc1ccc(N2C(=O)c3ccccc3NC2c2ccc(OC)c(Cn3nc(C)c(Cl)c3C)c2)cc1 (stereo unspecified) — lower, -4.3%
- O=C(CC1CCCCC1)NCc1ccccc1 — lower, 0.7%
- O=C(c1cc(Cl)cc(Cl)c1)n1ccnc1 — lower, 2.1%
- O=C(O)C1CC=CCC1C(=O)N1CCN(c2ccc(F)cc2)CC1 (stereo unspecified) — lower, -0.2%
- C=CC(=O)NC(NC(=O)C=C)c1cccc([N+](=O)[O-])c1 — lower, -8.2%
- COc1ccc(C(=O)CC(CC(=O)c2ccc(OC)cc2)c2cccs2)cc1 — higher, 12%
- O=C(O)C1CCCCC1C(=O)N1CCN(c2cccc(Cl)c2)CC1 (stereo unspecified) — lower, -17.3%
- Cc1cc(Cl)ccc1OCC(=O)N1CCN(c2ccccc2)CC1 — lower, -2.3%
- COC(=O)C1=C(C)NC(=S)NC1c1ccc(Cl)cc1 (stereo unspecified) — higher, 10.4%
- CC(=O)c1ccc(C(C)(C)C)cc1NC(=O)c1ccccc1 — lower, -0.9%
- COc1ccccc1NC(=O)N1CCc2ccccc21 — lower, -3%
- COc1ccc(/C=C(/C#N)C(=O)Nc2cccc(Br)c2)cc1C — lower, -20.8%
- O=C1NC(=S)S/C1=C/c1ccc(Cl)cc1 — higher, 5.6%
- Cc1cc([N+](=O)[O-])ccc1NC(=O)/C=C/c1ccc2c(c1)OCO2 — lower, 3.9%
- COc1ccc(NC(=S)N/C(=N\S(=O)(=O)c2ccccc2)c2ccccc2)cc1 — higher, 13.2%
- COc1cc2ccccc2cc1C(=O)Nc1cccc(-c2nc3cc(C)cc(C)c3o2)c1C — higher, 26.5%
- O=C(Nc1ccc(NC(=O)c2cccc(F)c2)cc1)c1cccc(F)c1 — higher, 5.9%
- COc1ccc(-c2noc(COc3ccc(C)cc3Br)n2)cc1 — higher, 6.5%
- S=C(NCCc1ccccc1)Nc1ccc(Cl)cc1Cl — lower, -5.1%
- CCN(C(=O)c1ccc(C)c([N+](=O)[O-])c1)c1ccccc1C — lower, 4.1%
- Cc1cccc(-c2cc(NC(=O)c3ccccc3[N+](=O)[O-])n[nH]2)c1 — higher, 7.3%
- CCCOc1ccc(C(=O)Nc2nc3ccc(OCC)cc3s2)cc1 — lower, 3.9%
- Cc1ccc(C(=O)N/C(=C/c2ccccc2F)C(=O)NN)cc1 — lower, -13.8%
- CC1=C(C(=O)OC(C)C)C(c2ccccc2F)CC(=O)N1 (stereo unspecified) — lower, -19.1%
- CC1(C)C2CCC1(C)C(NC(=O)C1CC3c4ccccc4C1c1ccccc13)C2 (stereo unspecified) — lower, 0.9%
- O=C(NNc1ccc([N+](=O)[O-])cc1[N+](=O)[O-])c1ccc(O)cc1 — lower, -7.4%
